Reference: the supplement of paper PMC11417369
The other results are listed elsewhere or left out.

Test system: PF3D7_0420300 AP2 domain 1 (GST-tagged)
Experiment: gcPBM binding intensity (ln(normalized median fluorescence intensity)); higher = stronger DNA binding
In short: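 GST-tagged P. falciparum DNA-binding domains, expressed in E. coli (about 25 μg on average), were applied for 1 h to an Agilent 4 × 180k array of primer-extended double-stranded 36-bp intergenic genomic probes plus negative controls. The binding buffer was 1× PBS with 1% milk, 0.2 mg/ml BSA, 0.5% salmon testes DNA and 0.03% Triton X-100. Bound protein was detected with Alexa488 anti-GST antibody and scanned at 488 nm. Binding intensity is the highest Masliner-normalised natural-log median intensity across replicate spots of either probe orientation.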

Row | Sequence | gcPBM binding intensity (ln)
1 | TGATAATAAGCATACACACACACACCCAAAAAAAAA [CACACA_site721] | 10.2
2 | TTTTTTTTTTCTTTTTTTCTCATGAAATTCTAAATG [CACACA_negctrl_site918] | 9
3 | AAATAAAAAAAAAAAAAAAATAACTTAAATGGGATA [TGCATGCA_negctrl_site595] | 9.29
4 | AACTAAATGTTATTCGCACACGGAATTTATTTAATG [CACACA_site3664] | 9.26
5 | ATATATATATATATATATATATATATGATTATTACT [GTGCAC_negctrl_site109] | 9.13
6 | ATTAATATGAATAAAACACACATATATAACTTGTAA [CACACA_site6989] | 9.54
7 | AAAAATTTGGCATACACACACACACGCACACGCACA [CACACA_site6422] | 10.2
8 | AATTATACTCACGTTACACACACACTATAAATATAT [CACACA_site7863] | 10.2
9 | ATCTTATATTATCACACACACACGCACAAAACAGAA [CACACA_site1463] | 10.1
10 | ATATTATATAGAAACACACATACACATGTAAATATA [CACACA_site2037] | 9.83
11 | TTTATTAAACTTGACACACACACACCCACATATATA [CACACA_site760] | 10.2
12 | ATGGATTTTACCATAGCACACATATATGAATATTTT [CACACA_site8535] | 9.34
13 | TAATTATTTCGTATATTTGAATGGTACATGCTTATA [CACACA_negctrl_site1178] | 9.06
14 | ATATAGAAAATGCATACACACTTTATATATATATTT [CACACA_site4658] | 9.42
15 | AATGTGCTCGCTATTACACACTCATTGGGATAAAAT [CACACA_site8627] | 9.37
16 | AGTAACAATTATTATGCATGTACAAATAATCATTTT [TGCATGCA_site867] | 9.27
17 | TATATTTATATACCAACACACATACATATTTATATA [CACACA_site6931] | 9.61
18 | AAAATTCAGCGAAAGGGTACATATGTGTAAGGGTAA [XGTACX_site8205] | 9.82
19 | CTATTATATCAGTAGACACACATATAACATTTATAT [CACACA_site141] | 9.36
20 | TATATTTTGTTTTTGTGTACATATTGGTAGTTATTT [XGTACX_site7659] | 9.66
21 | TGATTATCCTATATATATTTCATAATGGAAAAAAAT [TGCATGCA_negctrl_site444] | 8.95
22 | AATGTGGTATTTACAAAAAGGCTTTATACTTAAAAA [XGTACX_negctrl_site566] | 8.84

Row | Sequence | gcPBM binding intensity (ln)
23 | AAAAATAGTCTTCTTGCACTTTTTAATTTATTTTAA [CACACA_negctrl_site1322] | 8.86
24 | CTTTTCATCTTCTTAACACACAAAAAAAAAAAAAAA [CACACA_site3886] | 8.92
25 | AAGAAAATATAACAAAGTAAAAACATATTATATATA [TGCATGCA_negctrl_site248] | 9.31
26 | TATATATATTTTTGAAGTACTTATTACACTAGCATT [XGTACX_site8965] | 9.21
27 | TTGTTCTATAATTATACATGCATTAACAGAGTAAAA [TGCATGCA_site909] | 9.08
28 | ATATATATATATATATGTACATATATTTTCTTTTTG [XGTACX_site6017] | 9.12
29 | TTTTTTTTTTTTTAATGTACAAATATGGTGACAAAA [XGTACX_site8709] | 8.77
30 | AAAAACGATTAATGTGTACACACATAGTTATAAACA [CACACA_site8659] | 9.74
31 | AGGATAACATACAAAAGTACATAAAACTAAAAAAAC [XGTACX_site26] | 9.72
32 | CATACACCCGGACACACACACACACCCATATATAAT [CACACA_site4494] | 10.3
33 | TTGTTTTTTTCTTTTTGTACATATACAACATACATA [XGTACX_site8996] | 9.46
34 | AAACAATTTATGTGTAGTACATGTTGGAGATAATTT [XGTACX_site6000] | 9.35
35 | GAAAATATATTATTTACACACATGTTCAAATTAAAA [CACACA_site3761] | 9.27
36 | TATTAAATATAAGTCACACATAATTTTTCGTCCTTT [CACACA_site5065] | 9.24
37 | CTTTTTATTAAATATGCATGTGTATCAACAGTGAAT [TGCATGCA_site447] | 9.29
38 | GTTATACGCATATATACACACATATGTAAATATATA [CACACA_site3280] | 9.48
39 | TAAAAAAAATAGCATACACACATATATACCTATATA [CACACA_site4535] | 9.72
40 | ATCATAACACCTCCACACAAATAAATATAACATATA [XGTACX_negctrl_site269] | 9.39
41 | ATGAGTGCACAAATATATATATATATATATATATAT [CACACA_negctrl_site404] | 9.63
42 | ATATAAAAAAAAAAAAAAAAATATATATATATATAT [GTGCAC_negctrl_site251] | 8.77
43 | TTGGTTTGAAAGAAAGAAATTATTAAAAAGGAAATA [CACACA_negctrl_site26] | 8.95
44 | GATATACTGTCAATTCTACACACCATAGGGGGAGCA [CACACA_site8562] | 9.93

Row | Sequence | gcPBM binding intensity (ln)
45 | ATATATATATATACAACACACATGTAATATATAAAT [CACACA_site3294] | 9.57
46 | TACTGATCCACATTTATACACACCTCGGTTTGTAGA [CACACA_site417] | 9.42
47 | TATAGATTCTTTTAATGTACATGTCTTTTCATTTCC [XGTACX_site8348] | 9.22
48 | CCTTTATACATTTTCTGTACTGATATATATTAAAAA [XGTACX_site8467] | 9.22
49 | TTGTGTTCTTATTTTTACACCGAAAAATATTAAAAG [CACACA_negctrl_site535] | 8.99
50 | GTATGAAAAAAAATATGTACACATATATATTTGGTA [XGTACX_site6309] | 9.26
51 | TAGAAATATAATTAATGTACATATGATATTATATAT [XGTACX_site923] | 9.25
52 | ATTTATTTATATAGAAGTACATATTTATTTATATAT [XGTACX_site6283] | 9.05
53 | CTTTTTTAAATTATTGCACACAAAAATGAAAGGAAA [CACACA_site8412] | 9.15
54 | ACATCAAGCAGACACACACACACACCCACCCACCGA [CACACA_site371] | 10.2
55 | ATATATTTATTAAGGTGTACAAAAATTATGTTGCAT [XGTACX_site7546] | 9.36
56 | TATTTTATCTAAGGATGTACATTATTAAGAAAATGT [XGTACX_site6123] | 8.91
57 | TTATTATTGTTATGTTGTACTTTTACAAACTTTTTG [XGTACX_site8797] | 9.37
58 | TTCTATGAATTCATAGTGCAAATGAGTTATTTTTTC [GTGCAC_site9709] | 9.06
59 | AAGAAAATAGGGTTCATAGGATTATACTTTTGGAAT [TGCATGCA_negctrl_site80] | 9.21
60 | AACGAGCAAGACGGGGTGCACACAAACTAATATGCC [GTGCAC_site9436] | 9.78
61 | TAATAAAAGATATATACACACAAATAAATAAATAAA [CACACA_site7818] | 9.72
62 | ATAATATAAACATATTGTACACATATATTGCTATTT [XGTACX_site2799] | 9.43
63 | AAAAAAAAATATATATATATATATATAAATAAATTT [CACACA_negctrl_site519] | 9.03
64 | AAATATAAAAAAAATATATAATTTTTACATCGAATT [CACACA_negctrl_site544] | 8.99
65 | AAACAAAATGGTAACACACACATATATAAATATGTA [CACACA_site6994] | 9.87
66 | TATTATAAAGAAATTACACACATGCAATGAAAAAAA [CACACA_site1697] | 9.51

Row | Sequence | gcPBM binding intensity (ln)
67 | TCGTTTCCTTAAAATTGTACTTTTTTTTTTTTTTTT [XGTACX_site64] | 9.27
68 | AGAGTATATATATATGCATGCATATCTCATATTTAT [TGCATGCA_site509] | 9.25
69 | TGTTATTATTTGTACACACACATATAGATCCTTGTT [CACACA_site7667] | 9.97
70 | TAATGATAAATACATACACACAAAAAATAATATATA [CACACA_site2576] | 9.88
71 | ATTAAAGAGATATATACACACATTATGGGGGAATAA [CACACA_site6226] | 9.7
72 | ATAGAAATTATAAATAGTACATAATAAAAATGAGCA [XGTACX_site822] | 9.66
73 | CCTAAATATTTTTTATGTACATATTTATCTAAATTT [XGTACX_site6835] | 9.23
74 | TGAGGAAACATGAGATGTACATATAAATTTTTTTTT [XGTACX_site2595] | 9.14
75 | TTCATATAAATACATGCACACAAAAATATCAATACA [CACACA_site8753] | 9.64
76 | ATATATTTTATTACCAGTACATATATTAAAATAATA [XGTACX_site8440] | 9.1
77 | ATTTTTTTATTTGATTGTACAATTTTCTTTCAAAAT [XGTACX_site2902] | 9.23
78 | TATACAATATAAAATACACACGCACCCAAAAAAAAA [CACACA_site9174] | 9.83
79 | ATATAATGTGTAGGCCGTATTTACGTTTGGCAATCA [CACACA_negctrl_site1130] | 9.25
80 | TATAATATAATATATATATATATATATATATAAGAA [CACACA_negctrl_site78] | 9.02
81 | AAAAAAAATAGACACACACACATACACATAAATATA [CACACA_site7742] | 10.1
82 | AGGGTTACAAGAGGAACACACAAAAAAATAAATAAA [CACACA_site1436] | 9.54
83 | ATTAAATCTATATATACACACATGTTTGGTATATTC [CACACA_site2657] | 9.56
84 | TTTATATTACAATAATATATTAAAAAATAAAATATA [TGCATGCA_negctrl_site18] | 8.73
85 | CGATTACTAATTTTTAGTACATATAATCAATATGTA [XGTACX_site7857] | 9.01
86 | ATCTATTTCTATTGTTGTACTTATTTTTCATTGTTT [XGTACX_site6942] | 10
87 | ATGTAGCCTTACGCTTGTACGAATATCTTAATTTTT [XGTACX_site4331] | 9.31
